T1: KSR1-FLAG (wild type) (UniProt Q61097)
T1 sequence: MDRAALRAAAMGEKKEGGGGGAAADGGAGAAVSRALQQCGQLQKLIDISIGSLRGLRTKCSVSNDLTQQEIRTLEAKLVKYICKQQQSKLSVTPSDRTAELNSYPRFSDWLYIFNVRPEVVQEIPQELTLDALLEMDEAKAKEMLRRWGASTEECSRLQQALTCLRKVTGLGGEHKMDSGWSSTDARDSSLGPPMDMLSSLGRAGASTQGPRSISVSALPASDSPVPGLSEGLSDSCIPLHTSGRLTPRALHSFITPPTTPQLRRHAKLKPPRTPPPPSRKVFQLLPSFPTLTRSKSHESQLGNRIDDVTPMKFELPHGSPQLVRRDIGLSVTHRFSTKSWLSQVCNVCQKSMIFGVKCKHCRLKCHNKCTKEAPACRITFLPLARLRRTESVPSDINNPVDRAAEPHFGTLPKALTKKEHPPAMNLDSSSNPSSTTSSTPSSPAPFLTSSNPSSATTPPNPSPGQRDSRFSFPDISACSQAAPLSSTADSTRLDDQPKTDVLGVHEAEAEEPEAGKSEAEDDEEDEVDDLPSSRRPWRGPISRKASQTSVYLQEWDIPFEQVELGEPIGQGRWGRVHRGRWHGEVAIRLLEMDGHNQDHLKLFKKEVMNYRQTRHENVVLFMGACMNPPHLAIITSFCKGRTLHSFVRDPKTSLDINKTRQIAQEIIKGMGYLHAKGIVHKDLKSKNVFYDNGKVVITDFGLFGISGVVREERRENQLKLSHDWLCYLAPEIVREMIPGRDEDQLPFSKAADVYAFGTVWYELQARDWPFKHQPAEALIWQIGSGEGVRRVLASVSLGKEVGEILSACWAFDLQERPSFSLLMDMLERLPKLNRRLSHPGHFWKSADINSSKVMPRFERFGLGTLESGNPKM

The chains behind the UniProt entries cited, without tags or fusion partners.
UniProt P27448: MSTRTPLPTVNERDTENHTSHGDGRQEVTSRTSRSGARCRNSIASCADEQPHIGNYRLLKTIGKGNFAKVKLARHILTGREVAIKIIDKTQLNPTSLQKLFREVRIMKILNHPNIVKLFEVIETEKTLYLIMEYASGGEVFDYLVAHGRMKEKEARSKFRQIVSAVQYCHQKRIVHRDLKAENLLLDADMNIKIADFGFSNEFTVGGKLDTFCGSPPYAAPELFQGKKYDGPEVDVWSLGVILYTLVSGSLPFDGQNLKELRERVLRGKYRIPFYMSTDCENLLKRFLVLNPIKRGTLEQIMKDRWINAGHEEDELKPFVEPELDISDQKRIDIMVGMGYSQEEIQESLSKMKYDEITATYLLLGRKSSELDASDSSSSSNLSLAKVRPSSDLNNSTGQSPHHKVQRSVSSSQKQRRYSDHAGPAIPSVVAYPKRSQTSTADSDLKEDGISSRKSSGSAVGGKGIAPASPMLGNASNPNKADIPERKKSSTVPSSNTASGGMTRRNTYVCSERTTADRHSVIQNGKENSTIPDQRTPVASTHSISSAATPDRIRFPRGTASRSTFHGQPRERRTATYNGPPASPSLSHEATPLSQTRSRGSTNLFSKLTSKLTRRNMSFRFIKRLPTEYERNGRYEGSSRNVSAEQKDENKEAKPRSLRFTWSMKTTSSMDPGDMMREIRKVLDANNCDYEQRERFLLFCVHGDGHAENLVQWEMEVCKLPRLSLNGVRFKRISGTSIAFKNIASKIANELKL
UniProt Q7KZI7: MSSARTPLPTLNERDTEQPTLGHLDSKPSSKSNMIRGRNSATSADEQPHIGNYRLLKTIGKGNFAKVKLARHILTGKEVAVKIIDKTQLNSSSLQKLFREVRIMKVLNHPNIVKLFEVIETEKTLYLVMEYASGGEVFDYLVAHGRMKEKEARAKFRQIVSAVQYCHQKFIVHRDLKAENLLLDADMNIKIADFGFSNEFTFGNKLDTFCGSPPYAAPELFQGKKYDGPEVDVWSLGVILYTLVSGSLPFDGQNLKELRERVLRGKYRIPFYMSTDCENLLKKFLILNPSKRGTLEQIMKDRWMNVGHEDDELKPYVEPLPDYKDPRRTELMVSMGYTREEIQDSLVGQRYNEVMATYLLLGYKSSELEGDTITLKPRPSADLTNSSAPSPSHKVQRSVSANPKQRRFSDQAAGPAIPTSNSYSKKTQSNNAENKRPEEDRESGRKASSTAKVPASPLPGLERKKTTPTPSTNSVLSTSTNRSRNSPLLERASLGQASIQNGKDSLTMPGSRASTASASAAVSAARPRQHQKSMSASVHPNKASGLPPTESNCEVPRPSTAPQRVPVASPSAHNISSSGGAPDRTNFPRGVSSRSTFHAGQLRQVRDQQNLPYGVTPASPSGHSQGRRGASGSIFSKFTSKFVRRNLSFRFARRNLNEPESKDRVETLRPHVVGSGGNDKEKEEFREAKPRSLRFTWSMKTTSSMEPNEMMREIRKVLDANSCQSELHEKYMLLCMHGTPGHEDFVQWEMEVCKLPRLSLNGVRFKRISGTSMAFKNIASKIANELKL

B1: KSR1 N539 lacking the residues from 378-427 (FLAG-tagged) (domain or fragment, UniProt Q61097)
chain: MDRAALRAAAMGEKKEGGGGGAAADGGAGAAVSRALQQCGQLQKLIDISIGSLRGLRTKCSVSNDLTQQEIRTLEAKLVKYICKQQQSKLSVTPSDRTAELNSYPRFSDWLYIFNVRPEVVQEIPQELTLDALLEMDEAKAKEMLRRWGASTEECSRLQQALTCLRKVTGLGGEHKMDSGWSSTDARDSSLGPPMDMLSSLGRAGASTQGPRSISVSALPASDSPVPGLSEGLSDSCIPLHTSGRLTPRALHSFITPPTTPQLRRHAKLKPPRTPPPPSRKVFQLLPSFPTLTRSKSHESQLGNRIDDVTPMKFELPHGSPQLVRRDIGLSVTHRFSTKSWLSQVCNVCQKSMIFGVKCKHCRLKCHNKCTKEAPACDSSSNPSSTTSSTPSSPAPFLTSSNPSSATTPPNPSPGQRDSRFSFPDISACSQAAPLSSTADSTRLDDQPKTDVLGVHEAEAEEPEAGKSEAEDDEEDEVDDLPSSRRPWR
B2: KSR1-FLAG (wild type) (protein, UniProt Q61097 1-873)
chain: T1 sequence
B3: KSR1 N539 (FLAG-tagged) (domain or fragment, UniProt Q61097 1-539)
chain: MDRAALRAAAMGEKKEGGGGGAAADGGAGAAVSRALQQCGQLQKLIDISIGSLRGLRTKCSVSNDLTQQEIRTLEAKLVKYICKQQQSKLSVTPSDRTAELNSYPRFSDWLYIFNVRPEVVQEIPQELTLDALLEMDEAKAKEMLRRWGASTEECSRLQQALTCLRKVTGLGGEHKMDSGWSSTDARDSSLGPPMDMLSSLGRAGASTQGPRSISVSALPASDSPVPGLSEGLSDSCIPLHTSGRLTPRALHSFITPPTTPQLRRHAKLKPPRTPPPPSRKVFQLLPSFPTLTRSKSHESQLGNRIDDVTPMKFELPHGSPQLVRRDIGLSVTHRFSTKSWLSQVCNVCQKSMIFGVKCKHCRLKCHNKCTKEAPACRITFLPLARLRRTESVPSDINNPVDRAAEPHFGTLPKALTKKEHPPAMNLDSSSNPSSTTSSTPSSPAPFLTSSNPSSATTPPNPSPGQRDSRFSFPDISACSQAAPLSSTADSTRLDDQPKTDVLGVHEAEAEEPEAGKSEAEDDEEDEVDDLPSSRRPWR
B4: KSR1 N539 I397A/V401A (FLAG-tagged) (domain or fragment, UniProt Q61097 1-539)
chain: B3 chain with I397A, V401A

Numbering of substitutions follows the chain as printed. Names and notes keep the numbering of the source. These are yes or no findings as the source states them, for the method shown. In cells and extracts the contact can be indirect. Some entries that bind do so weakly or less than the wild type. Sequences can lack the tags named with a protein.

The target of the first experiment is C-TAK1-HA (UniProt P27448). Briefly: co-IP; KSR1-FLAG (WT or mutants) co-transfected with MARK2-HA or C-TAK1-HA in 293T cells; lysed 36 h later in NP40 lysis buffer (20 mM Tris pH 8, 137 mM NaCl, 10% glycerol, 1% NP40); anti-FLAG-agarose or anti-HA-agarose overnight at 4°C; western blot with antibodies to the epitope tags. In general terms: Immunoblotting shows a protein as a band on a membrane.
In the case of B1, the binding result is recorded as “binds”.
The same measure, in the same setting: then B2, with “binds”; and B3, with “binds”.
On the same count and under the same terms, the same measure for B4: “no binding”.

The target in a further experiment is MARK2-HA (UniProt Q7KZI7). The description is as above.
As for B1, the binding result is listed as “binds”.
On the same count and under the same terms, the same measure for B2: “binds”.
On the same count and under the same terms, then B3, with “binds”.
Still for that read-out and setting: the same measure for B4: “binds”.

The target in a further experiment is T1, KSR1-FLAG (wild type). The description is as above.
As to “C-TAK1-HA (from UniProt P27448 1-753) (enzyme)”, the binding result is given as “binds”.
Take “MARK2-HA (from UniProt Q7KZI7 1-788) (enzyme)”: the binding result was “binds”.

Source of the values: publication PMC3242779.
